Publication PMC4336329 (PLoS ONE, 2015)
Hit rate of the full screen: of about 310,000 compounds, about 14,000 (4.5%) showed an effect of 50% or more. The effect is printed as a negative number. The list shows a part of the results.

The molecules below were run against human ether-à-go-go-related gene (hERG) potassium channel (human, UniProt Q12809) (assay: primary screen, population patch clamp on CHO cells stably expressing hERG).
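Further: peak tail current of the secondary pulse compared with the same well before compound.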

Sequence of human ether-à-go-go-related gene (hERG) potassium channel (Q12809 whole entry, looked up): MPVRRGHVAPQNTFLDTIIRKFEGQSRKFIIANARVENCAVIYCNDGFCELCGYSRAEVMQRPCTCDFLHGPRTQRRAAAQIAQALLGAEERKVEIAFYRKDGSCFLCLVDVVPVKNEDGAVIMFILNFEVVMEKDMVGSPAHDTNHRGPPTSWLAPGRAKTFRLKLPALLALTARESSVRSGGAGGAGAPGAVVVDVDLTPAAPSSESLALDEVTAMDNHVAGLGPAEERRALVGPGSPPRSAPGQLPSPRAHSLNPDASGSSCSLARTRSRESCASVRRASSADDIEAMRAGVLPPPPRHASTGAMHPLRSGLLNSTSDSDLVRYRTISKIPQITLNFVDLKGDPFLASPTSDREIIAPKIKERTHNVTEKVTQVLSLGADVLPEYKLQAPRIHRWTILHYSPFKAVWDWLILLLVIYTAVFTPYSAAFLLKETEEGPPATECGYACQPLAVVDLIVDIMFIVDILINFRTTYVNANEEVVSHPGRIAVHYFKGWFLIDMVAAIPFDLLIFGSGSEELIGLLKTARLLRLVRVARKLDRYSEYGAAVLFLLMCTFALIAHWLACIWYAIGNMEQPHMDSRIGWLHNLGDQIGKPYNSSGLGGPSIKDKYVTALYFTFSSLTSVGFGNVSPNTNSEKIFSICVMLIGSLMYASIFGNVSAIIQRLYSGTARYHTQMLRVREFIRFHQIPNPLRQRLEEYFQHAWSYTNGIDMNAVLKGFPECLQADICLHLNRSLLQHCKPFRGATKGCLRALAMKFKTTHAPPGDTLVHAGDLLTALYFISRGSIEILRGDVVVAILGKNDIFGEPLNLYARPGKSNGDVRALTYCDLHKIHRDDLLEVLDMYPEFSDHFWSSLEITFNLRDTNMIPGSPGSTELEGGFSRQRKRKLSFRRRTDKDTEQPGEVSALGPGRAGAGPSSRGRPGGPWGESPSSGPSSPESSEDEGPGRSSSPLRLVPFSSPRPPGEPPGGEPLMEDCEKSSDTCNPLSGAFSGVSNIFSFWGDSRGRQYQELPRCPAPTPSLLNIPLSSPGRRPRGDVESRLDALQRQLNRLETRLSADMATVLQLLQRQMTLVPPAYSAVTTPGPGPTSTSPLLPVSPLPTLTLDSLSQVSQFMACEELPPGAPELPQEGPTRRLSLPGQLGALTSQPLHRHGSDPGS

In order of falling “hERG current change (%, negative = inhibition) at 10uM” value:
1. Cc1nn(-c2ccccc2)c(C)c1N  48.3%
2. O=C(CN1C(=O)NC2(CCCCC2)C1=O)Nc1ccc2c(c1)CCC2  30.6%
3. CCn1c(SCc2nc3ccccc3c(=O)[nH]2)nnc1C(C)NC(=O)c1ccccc1 (stereo not shown)  26.4%
4. O=C(O)COc1ccccc1/C=N/NC(=O)Cc1ccccc1  20.7%
5. N#CC1=C(N)SC(N)=C(C#N)C1c1ccnc2ccccc12  20.4%
6. Nc1c(C(=O)OCC2CCCO2)c2nc3ccccc3nc2n1C1CCCCC1 (stereo not shown)  19.7%
7. Cn1c(O)c(N=Nc2ccc(F)cc2)c2ccccc21  18.1%
8. COc1cc(C(c2c(C)[nH]n(-c3ccccc3)c2=O)c2c(C)[nH]n(-c3ccccc3)c2=O)cc(OC)c1OC  17.6%
9. Nc1nnc(CC(=O)N/N=C/c2ccc(-c3ccc(Cl)cc3Cl)o2)s1  17.2%
10. COCCCNC(=O)c1ccccc1N(Cc1ccccc1)S(=O)(=O)c1ccccc1  16.3%
11. COc1cc(/C=C2\N=C(c3ccccc3)NNC2=O)cc(OC)c1OC  14%
12. C[C@H]1CCC/C=C/[C@@H]2C[C@H](O)C[C@H]2[C@H](O)/C=C/C(=O)O1 [56422115]  14%
13. O=C(Nc1ccccc1)Nc1ccc2ccccc2c1  12.2%
14. CC(C)C(=O)Nc1ccc(C(=O)NNC(=S)NC(=O)c2ccccc2[N+](=O)[O-])cc1  11.5%
15. CN(Cc1ccccc1)C(=O)c1nc[nH]c1C(=O)N1CCN(C(=O)OC(C)(C)C)CC1  11.2%
16. CC1(C)CN(c2ccsc2C(=O)O)C1=O  10.9%
17. CC(=O)Nc1c(C)ccc(CNC(=O)COc2ccc(F)cc2)c1C  10.6%
18. Cc1cccc(C)c1NC(=O)Cn1nnc(-c2ccc(CN3CCC(C)CC3)cc2)n1  9.65%
19. CC(C)(C)[C@H]1C=C(C(=O)NC2CC2)O[C@@H](OCc2ccc(CO)cc2)C1  9.35%
20. CC(C)[C@@H](C(=O)O)N(Cc1cccc(CN([C@H](C(=O)O)C(C)C)S(C)(=O)=O)c1)S(C)(=O)=O  9.08%
21. CCC(C)(C)NC(=O)C(c1ccc(OC)cc1)N(Cc1ccc(OC)cc1)C(=O)CCC(=O)Nc1cc(C)on1 (stereo not shown)  8.17%
22. CCCNC(=O)C(Cc1ccccc1)NC(=O)c1ccccc1 (stereo not shown)  7.51%
23. C/C(=N\NC(=O)CCc1ccc(S(=O)(=O)N2CCOCC2)cc1)c1ccc(Br)cc1  6.98%
24. COc1ccc(/C(N)=N/OC(=O)C2CCC(=O)N2S(=O)(=O)c2ccc(C)cc2)cc1 (stereo not shown)  6.53%
25. O=C(NCCN1CCCCCC1)C1CCN(S(=O)(=O)N2CCOCC2)CC1  5.97%
26. Cc1cc(NC(=O)COC(=O)CSCc2ccc(Cl)c(Cl)c2)no1  5.96%
27. Cc1c(NC(=O)Nc2cc(Cl)ccc2Cl)c(=O)n(-c2ccccc2)n1C  5.72%
28. COc1ccccc1CN(C)C(=O)c1cc2ccccc2o1  5.61%
29. Cc1ccn2c(C(=O)CSc3ccccc3)c(C)nc2c1  5.58%
30. CCCS(=O)(=O)N1CCCC(C(=O)NCc2ccc(C)cc2)C1 (stereo not shown)  4.91%
31. CCOC(=O)c1sc2nc(C)nc(SCC(=O)N(CC)C3CCS(=O)(=O)C3)c2c1C (stereo not shown)  4.76%
32. O=C(Nc1cc(C(F)(F)F)ccc1N1CCCCC1)c1cccc([N+](=O)[O-])c1  4.66%
33. CC(C)(C)c1ccc(N2C(=O)CSC2c2cccnc2)cc1 (stereo not shown)  4.38%
34. CC(Sc1ccc2c(c1)OCCO2)C(=O)Nc1ccc2c(c1)OCO2 (stereo not shown)  4.25%
35. COc1cc(C=O)ccc1OC(=O)c1ccc(C(C)C)cc1  4.05%
36. CC(C)(C)NC(=O)Cn1c(SCC(=O)NC2CCCCC2)nc2ccccc21  3.96%
37. CN(C)c1ccc(NC(=O)CSc2nc3ccccc3c(=O)n2CC2CCCO2)cc1 (stereo not shown)  2.31%
38. CCOc1ccc(NC(=O)C2C(C(=O)O)C3(Cl)C(Cl)=C(Cl)C2(Cl)C3(Cl)Cl)cc1 (stereo not shown)  2.09%
39. Cc1cc2nc3n(c2cc1C)CC1CC(C(=O)NCCC(C)C)N(C)C31 (stereo not shown)  1.81%
40. Cc1c(C#N)c2ncn(Cc3ccccc3)c(=O)c2n1-c1ccccc1  1.55%
41. O=C(CCS(=O)(=O)c1ccc(Br)cc1)Nc1cc(F)ccc1F  1.3%
42. CCOC(=O)N1CCC(NC(=O)CN2C(=O)C(CC)Oc3ccc(C)cc32)CC1 (stereo not shown)  0.991%
43. CCOc1ccc(OCC)c(C2C(C#N)=C(N)N(c3cccnc3)C3=C2C(=O)CC(C)(C)C3)c1 (stereo not shown)  0.96%
44. CCOc1ccc(NC(=S)Nc2cc(C)[nH]n2)cc1  0.731%
45. COC(=O)c1ccc(N=NN2CCOCC2)cc1  0.0119%
46. Cc1cc(C)c(NC(=S)NCCO)c(C)c1  -0.436%
47. C=CCSc1nc2ccccc2c(=O)[nH]1  -0.587%
48. COc1cc(/C=C(/C#N)C(=O)Nc2ccc(C)cc2)ccc1Oc1nc(Cl)ncc1F  -1.55%
49. CC(C)(C)NC(=O)NC(=O)CN1CCN(Cc2ccccc2)CC1  -1.77%
50. CCOc1ccccc1NC(=O)c1cccc(NC(=O)C(C)C)c1  -2.12%
51. CC(C)c1nc(N2CCCC2)c(C#N)c2c1CCCC2  -2.2%
52. CCc1ccc(CN(C)C(=O)c2cc(COc3c(F)cccc3F)on2)cc1  -2.23%
53. COc1ccc2[nH]c(=O)c(CN(CC3CCCO3)C(=O)Nc3ccccc3)cc2c1 (stereo not shown)  -2.72%
54. COc1ccc(/C=C/C(=O)Nc2cccc(N3CCOCC3)c2)cc1OC  -3.02%
55. Cc1ccc(C(C)C)c(OCc2nnc(SCC(=O)Nc3ncc(C)s3)n2C)c1  -4.11%
56. CS(=O)(=O)Nc1ccc([N+](=O)[O-])cc1Oc1ccccc1  -5%
57. Cc1ccc(NC(=O)c2ccc(C)cc2)cc1  -5.64%
58. CCCC1COC(Cn2cncn2)(c2ccc(Cl)cc2Cl)O1 (stereo not shown)  -6.16%
59. COCCCN1C(=O)c2ccc(C(=O)N3CCN(c4ccccc4OC)CC3)cc2C1=O  -7.05%
60. CNC(=O)c1c(NC(=O)CS(=O)(=O)c2ccccc2)sc(C)c1C  -9.71%
61. Oc1ccc(Br)cc1C=Nc1ccc2[nH]ncc2c1  -11.8%
62. Cc1cccc(Nc2nnc(SCC(=O)NC3CCCc4ccccc43)s2)c1C (stereo not shown)  -13.1%
63. CCOC(=O)CNS(=O)(=O)c1cc(-c2nnc(Nc3ccc4c(c3)OCO4)c3ccccc23)ccc1C  -15.9%
64. O=C(Cc1ccc(F)cc1)NCCS(=O)(=O)N1CCN(c2cccc(Cl)c2)CC1  -16.2%
65. CCOC(=O)c1sc(NC(=O)c2ccccc2OCC)nc1C  -16.3%
66. Cc1c(Cl)c([N+](=O)[O-])nn1CC(=O)NCc1ccc(Cl)cc1  -16.6%
67. CCOC(=O)c1ccc(NC2=CC(=O)CC(c3ccco3)C2)cc1 (stereo not shown)  -16.8%
68. Cc1ccc(S(=O)(=O)Nc2cccnc2Oc2ccc(Cl)cc2)cc1  -20.9%
69. O=C(CN1C(=O)C2CCCN2C(=O)c2ccccc21)Nc1ccccc1-n1cccc1 (stereo not shown)  -21.6%
70. COC(=O)c1sccc1S(=O)(=O)N1CCCC(N(C)CCc2ccccn2)C1 (stereo not shown)  -22.7%
71. CC(C)CCNc1c(-c2cccs2)nc2ccccn12  -23.2%
72. Cc1ccsc1/C=N/NC(=O)CNC(=O)c1ccc(S(=O)(=O)N(C)C)cc1  -23.9%
73. CSc1nc2sc3c(c2c2nncn12)CCC3  -25.2%
74. CCN(c1ccccc1)S(=O)(=O)c1ccc(Cl)c(NC(=O)CN(C)C2CCN(C)CC2)c1  -38.8%
75. Cn1cc(CNCc2cn(C)nc2-c2ccc(C3CCCCC3)cc2)cn1  -39.8%
76. Cc1c(C(=O)Nc2ccc(F)cc2)c2ccccn2c1CCc1ccncc1  -42.8%
77. COc1ccccc1NC(=O)CSc1nnc(CNC(=O)COc2ccc(Cl)cc2)o1  -43.7%
78. COc1ccc2c(CN3CCN(S(=O)(=O)c4cccs4)CC3)cc(=O)oc2c1  -45.6%
79. O=C(CCCn1c(=O)[nH]c2cc(Cl)ccc2c1=O)NCCN1CCN(c2ccccc2)CC1  -48.4%
80. Cn1c(N2CCOCC2)nc2c1c(=O)n(Cc1ccc(Cl)c(Cl)c1)c(=O)n2C  -50.5%
81. Cc1cc(NCc2ccccc2)nc2ccccc12  -50.9%
82. COc1ccc(C)cc1S(=O)(=O)NCC(c1ccco1)N1CCc2ccccc2C1 (stereo not shown)  -62.8%
83. COc1ccc(-c2cnnn2-c2ccc([N+](=O)[O-])cc2)cc1  -64.6%
84. CCN(C(=O)CSc1nc2ccccc2c(=O)n1Cc1ccc(C)cc1)C1CCS(=O)(=O)C1 (stereo not shown)  -71%
85. COc1cccc(-c2nc3n(n2)C(c2cccs2)C(C(=O)Nc2cccnc2)=C(C)N3)c1 (stereo not shown)  -72.3%
